In this assay the test system is TYKNU. The assay can be described thus: fractional viability relative to vehicle; TYKNU is a high-grade serous ovarian cancer line; higher = less growth inhibition. The note with it: 72 h, genotype: OPA1 knockout (sgOPA1 #2). The essentials:
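TYKNU control cells or lentiCRISPRv2 knockout derivatives were seeded at 500 cells per well into drug-stamped 384-well plates holding a ~2100-compound library at 2 or 10 μM, in duplicate. Cells were grown at 37 °C in 5% CO2 in RPMI 1640 with 10% FBS, and drug treatment lasted 72 h. Viability was read by Cell Titer Glo luminescence. Duplicate treatment wells were averaged and normalised to duplicate control wells from the same plate position.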

Each structure is given as a SMILES string. Structures can show the parent of a compound that is named as a salt. In all, about 2,000 compounds were measured (“fractional viability relative to vehicle”: median about 0.92, lowest 2% from about 0.11 on). This is one part of the list.

In the case of `CS(=O)(=O)c1ccc([C@@H](O)[C@@H](CF)NC(=O)C(Cl)Cl)cc1` [Florfenicol], the fractional viability by setting is: (2uM) 1.1; (10uM) 1.35.

With `CC(C)OC(=O)C(C(=O)OC(C)C)=C1SC=CS1` [Malotilate], the fractional viability is, setting by setting: (2uM) 1.18; (10uM) 0.94.

For `CC[C@]12C=CCN3CC[C@@]4(c5cc([C@@]6(C(=O)OC)C[C@@H]7C[C@@H](C(C)(F)F)CN(Cc8c6[nH]c6ccccc86)C7)c(OC)cc5N(C)[C@H]4[C@@](O)(C(=O)OC)[C@@H]1OC(C)=O)[C@@H]32` [Vinflunine Tartrate], the fractional viability by setting is: (2uM) 0.331; (10uM) 0.328.

For `c1ccc2c(c1)CCCC2C1=NCCN1` (stereo unspecified) [Tetrahydrozoline HCl], the fractional viability by setting is: (2uM) 1.01; (10uM) 0.817.

For `C=C(C)[C@@H]1CC[C@]2(C(=O)O)CC[C@]3(C)[C@H](CC[C@@H]4[C@@]5(C)CC[C@H](O)C(C)(C)[C@@H]5CC[C@]43C)[C@@H]12` [Betulinic acid], the fractional viability reads like this: (2uM) 0.916; (10uM) 0.979.

On to `O=C(O)C1=C[C@@H](O)[C@@H](O)[C@H](O)C1` [Shikimic Acid], for which the fractional viability is 1.04 (2uM) and 0.875 (10uM).

Consider `C1N2CN3CN1CN(C2)C3` [Methenamine], for which the fractional viability came out at 1.11 (2uM) and 0.862 (10uM).

Take `CC1(C)CCC(c2ccc(Cl)cc2)=C(CN2CCN(c3ccc(C(=O)NS(=O)(=O)c4ccc(N[C@H](CCN5CCOCC5)CSc5ccccc5)c(S(=O)(=O)C(F)(F)F)c4)cc3)CC2)C1` [ABT-263 (Navitoclax)]: the fractional viability stood at 0.857 (2uM) and 0.555 (10uM).

As for `O=C(COc1ccc(C(=O)c2ccccc2)cc1)NC1CCN(Cc2ccccc2)CC1` [AdipoRon], the fractional viability by setting is: (2uM) 0.858; (10uM) 0.828.

On to `CCOC(=O)N1CCC(=C2c3ccc(Cl)cc3CCc3cccnc32)CC1` [Loratadine], for which the fractional viability was found to be 0.977 (2uM) and 0.79 (10uM).

As for `Nc1nc(F)nc2c1ncn2[C@@H]1O[C@H](COP(=O)(O)O)[C@@H](O)[C@@H]1O` [Fludarabine Phosphate], the fractional viability came out at 0.545 (2uM) and 0.255 (10uM).

As for `O=C(NOCC1CC1)c1ccc(F)c(F)c1Nc1ccc(I)cc1Cl`, the fractional viability (2uM) was determined as 0.943 and the fractional viability (10uM) turned out to be 0.483.

For `CN1CCN(S(=O)(=O)c2ccc(-c3cnc(N)c(C(=O)Nc4cccnc4)n3)cc2)CC1`, the fractional viability by setting is: (2uM) 1.07; (10uM) 0.554.

As to `COc1ccc(-c2coc3cc(O)ccc3c2=O)cc1` [Formononetin], the fractional viability reads like this: (2uM) 0.839; (10uM) 0.875.

With `CNc1nc(-c2ccc3c(N)n[nH]c3c2)cc(N2C[C@@H](C(=O)NC3CCCCC3)CC[C@H]2C)n1`, the fractional viability is, setting by setting: (2uM) 0.828; (10uM) 0.571.

`Oc1c(Br)cc(Br)c2cccnc12` [Broxyquinoline]: the fractional viability (2uM) came out at 0.901 and the fractional viability (10uM) was 0.487.

For `Nc1ccc2ncnc(NCCc3ccc(Oc4ccccc4)cc3)c2c1`, the fractional viability reads like this: (2uM) 1.03; (10uM) 0.964.

In turn, `Cc1ccc2c(c1)C(=O)C1(O)CCN(c3ccccc3)C1=N2` (single isomer, unassigned; (-)) [(-)-Blebbistatin] yielded a fractional viability (2uM) of 0.984 and a fractional viability (10uM) of 0.834.

Turning to `CC(C)C[C@H](NC(=O)[C@H](Cc1ccccc1)NC(=O)c1cnccn1)B(O)O` [Bortezomib (PS-341)], the fractional viability (2uM) was found to be 0.324 and the fractional viability (10uM) was 0.257.

In the case of `COc1ccc(CC(C)NCC(O)c2ccc(O)c(NC=O)c2)cc1` (stereo unspecified) [Formoterol Hemifumarate], the fractional viability is, setting by setting: (2uM) 0.939; (10uM) 0.897.

With `CS(=O)(=O)c1ccc(C(=O)Nc2ccc(Cl)c(-c3ccccn3)c2)c(Cl)c1` [Vismodegib (GDC-0449)], the fractional viability amounted to 1.13 (2uM) and 1.11 (10uM).

With `NC(=O)N1CCC(CC(=O)N2CCC([C@H]3c4ncc(Br)cc4CCc4cc(Cl)cc(Br)c43)CC2)CC1` [Lonafarnib], the fractional viability by setting is: (2uM) 0.821; (10uM) 0.583.

For `C[C@H](N[C@@H](CCc1ccccc1)C(=O)O)C(=O)N1CCC[C@H]1C(=O)O` [Enalaprilat Dihydrate], the fractional viability runs as follows: (2uM) 1.06; (10uM) 1.07.

Regarding `O=C(Nc1cc(C(F)(F)F)cc(C(F)(F)F)c1)c1cc(Cl)ccc1O`, the fractional viability is, setting by setting: (2uM) 0.397; (10uM) 0.308.

As to `CN(C)[C@@H]1C(O)=C(C(N)=O)C(=O)[C@@]2(O)C(O)=C3C(=O)c4c(O)cccc4[C@@](C)(O)[C@H]3C[C@@H]12` [Tetracycline HCl], the fractional viability turned out to be 1.57 (2uM) and 1.46 (10uM).

As to `COC(=O)[C@H](c1ccccc1Cl)N1CCc2sccc2C1` [Clopidogrel], the fractional viability reads like this: (2uM) 1.18; (10uM) 1.04.

With `COCCCC/C(=N\OCCN)c1ccc(C(F)(F)F)cc1` [Fluvoxamine maleate], the fractional viability reads like this: (2uM) 1.33; (10uM) 0.967.

Turning to `Cc1c(Cl)cccc1Nc1ccccc1C(=O)O` [Tolfenamic Acid], the fractional viability (2uM) was determined as 1.05 and the fractional viability (10uM) amounted to 0.964.

In the case of `CCCSc1ccc2[nH]c(NC(=O)OC)nc2c1` [Albendazole], the fractional viability came out at 0.518 (2uM) and 0.413 (10uM).

On to `CO[C@H]1/C=C/O[C@@]2(C)Oc3c(C)c(O)c4c(O)c(c(/C=N/N5CCN(C)CC5)c(O)c4c3C2=O)NC(=O)/C(C)=C\C=C\[C@H](C)[C@H](O)[C@@H](C)[C@@H](O)[C@@H](C)[C@H](OC(C)=O)[C@@H]1C` [Rifampin], for which the fractional viability is 1.13 (2uM) and 1.05 (10uM).

As for `CNC[C@@H](O)c1ccc(O)c(O)c1` [L-Adrenaline], the fractional viability came to 0.849 (2uM) and 0.628 (10uM).

`Cc1ccc(N(CC2=NCCN2)c2cccc(O)c2)cc1` [Phentolamine Mesylate]: the fractional viability (2uM) was determined as 1.16 and the fractional viability (10uM) was 1.01.

Take `CC(C)Nc1cc(-c2c[nH]c(C(=O)N[C@H](CO)c3cccc(Cl)c3)c2)c(Cl)cn1`: the fractional viability reads like this: (2uM) 0.453; (10uM) 0.36.

For the origin of these results see the supplement of paper PMC5919970.
